Results: the supplement of paper PMC4604168 (melanoma cell lines)
Some of the results follow. Repeats are few or missing, and single values can be far off.

The compounds below were run on RVH-421 (assay: cell count relative to DMSO control; melanoma cells; higher = more viable cells). Conditions: library dose: standard library concentration; 72 h.
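Also: cells treated in 1,536-well plates, then fixed and DAPI-stained, with nuclei counted from automated high-throughput microscope images.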

SMILES | cell count [%]
COc1ccc(-c2ccc3c(N4CCOCC4)nc(N4C[C@@H](C)O[C@@H](C)C4)nc3n2)cc1CO + Oc1nc(-c2ccc(C(F)(F)F)cc2)nc2c1CSCC2 [XAV939] (first compound 0.1 µM, partner dose 10 µM) | 73.6
COc1ccc(-c2ccc3c(N4CCOCC4)nc(N4C[C@@H](C)O[C@@H](C)C4)nc3n2)cc1CO + O=C1NC(=O)/C(=C/c2ccc(-c3ccc(F)cc3O)o2)S1 [AS252424] (first compound 0.1 µM, partner dose 5 µM) | 102
COC(=O)c1sccc1S(=O)(=O)Nc1ccc(Nc2ccccc2)cc1OC + Cc1cc([N+](=O)[O-])ccc1NS(=O)(=O)c1cc(Cl)ccc1Cl [FH535] (first compound 5 µM, partner dose 5 µM) | 78.4
CCN(CC)CCCCNc1ncc2cc(-c3cc(OC)cc(OC)c3)c(NC(=O)NC(C)(C)C)nc2n1 + Cn1cc(/C=C2\C(=O)Nc3cccnc32)c2ccccc21 [GW441756] (first compound 0.5 µM, partner dose 2 µM) | 117
CCN(CC)CCCCNc1ncc2cc(-c3cc(OC)cc(OC)c3)c(NC(=O)NC(C)(C)C)nc2n1 + c1cc(-c2cnn3cc(-c4ccc(OCCN5CCCCC5)cc4)cnc23)ccn1 [Dorsomorphin] (first compound 0.5 µM, partner dose 2 µM) | 99.5
CCN(CC)CCCCNc1ncc2cc(-c3cc(OC)cc(OC)c3)c(NC(=O)NC(C)(C)C)nc2n1 + O=C(O)C(=O)Nc1sc2c(c1C(=O)O)CCNC2 [TCS401] (first compound 0.5 µM, partner dose 8.33333 µM) | 103
COc1ccc(COc2ccc(Cc3cnc(N)nc3N)cc2OC)cc1 + O=S(=O)(c1ccccc1)N(CC(F)(F)F)c1ccc(C(O)(C(F)(F)F)C(F)(F)F)cc1 [T0901317] (first compound 5 µM, partner dose 7 µM) | 89.2
O=S(=O)(c1ccccc1)N(CC(F)(F)F)c1ccc(C(O)(C(F)(F)F)C(F)(F)F)cc1 + Cn1cc(/C=C2\C(=O)Nc3cccnc32)c2ccccc21 [GW441756] (first compound 7 µM, partner dose 2 µM) | 118
Cn1cc(/C=C2\C(=O)Nc3cccnc32)c2ccccc21 + CC(C)CCN1c2nc(Nc3cc(F)c(O)c(F)c3)ncc2N(C)C(=O)C1C [BID1870] (first compound 2 µM, partner dose 1 µM) | 81.8
COC(=O)c1sccc1S(=O)(=O)Nc1ccc(Nc2ccccc2)cc1OC + COc1cc2ncnc(Nc3ccc(Oc4ccccc4)cc3)c2cc1OC [SrcI1] (first compound 5 µM, partner dose 10 µM) | 123
O=S(=O)(c1ccccc1)N(CC(F)(F)F)c1ccc(C(O)(C(F)(F)F)C(F)(F)F)cc1 + CCCCCCCCCCCC1=C(O)C(=O)C=C(O)C1=O [Embelin] (first compound 7 µM, partner dose 6 µM) | 69.4
N#Cc1c(O)c2c(-c3ccc(-c4ccccc4O)cc3)csc2[nH]c1=O + COc1ccc(-c2ccc3c(N4CCOCC4)nc(N4C[C@@H](C)O[C@@H](C)C4)nc3n2)cc1CO [KU0063794] (first compound 10 µM, partner dose 0.1 µM) | 116
COc1ccc2c(c1)CCC1C2CCC2(C)C(NCCCCCCN3C(=O)C=CC3=O)CCC12 (stereo not drawn) + CC(C)CCN1c2nc(Nc3cc(F)c(O)c(F)c3)ncc2N(C)C(=O)C1C [BID1870] (first compound 2 µM, partner dose 1 µM) | 79.9
Oc1cc(-c2nc(-c3ccccc3)[nH]c2-c2ccncc2)ccc1Cl + O=C1NC(=O)/C(=C/c2ccc(-c3ccc(F)cc3O)o2)S1 [AS252424] (first compound 1 µM, partner dose 5 µM) | 60.4
COc1ccc2c(c1)CCC1C2CCC2(C)C(NCCCCCCN3C(=O)C=CC3=O)CCC12 (stereo not drawn) + c1cc(-c2cnn3cc(-c4ccc(OCCN5CCCCC5)cc4)cnc23)ccn1 [Dorsomorphin] (first compound 2 µM, partner dose 2 µM) | 119
Cn1cc(/C=C2\C(=O)Nc3cccnc32)c2ccccc21 + O=c1cc(-c2cccc3c2Sc2ccccc2S3)oc(N2CCOCC2)c1 [KU55933] (first compound 2 µM, partner dose 5 µM) | 116
O=S(=O)(c1ccccc1)N(CC(F)(F)F)c1ccc(C(O)(C(F)(F)F)C(F)(F)F)cc1 + O=c1cc(-c2cccc3c2Sc2ccccc2S3)oc(N2CCOCC2)c1 [KU55933] (first compound 7 µM, partner dose 5 µM) | 101
COc1ccc(COc2ccc(Cc3cnc(N)nc3N)cc2OC)cc1 + Oc1cc(-c2nc(-c3ccccc3)[nH]c2-c2ccncc2)ccc1Cl [L779450] (first compound 5 µM, partner dose 1 µM) | 78.5
N#Cc1c(O)c2c(-c3ccc(-c4ccccc4O)cc3)csc2[nH]c1=O + c1cc(-c2cnn3cc(-c4ccc(OCCN5CCCCC5)cc4)cnc23)ccn1 [Dorsomorphin] (first compound 10 µM, partner dose 2 µM) | 87.2
Oc1nc(-c2ccc(C(F)(F)F)cc2)nc2c1CSCC2 + COc1cc(N2CCC(N3CCN(C)CC3)CC2)ccc1Nc1ncc(Cl)c(Nc2ccccc2S(=O)(=O)C(C)C)n1 [NVP-TAE684] (first compound 10 µM, partner dose 0.4 µM) | 108
COc1ccc(-c2ccc3c(N4CCOCC4)nc(N4C[C@@H](C)O[C@@H](C)C4)nc3n2)cc1CO + O=S(=O)(c1ccccc1)N(CC(F)(F)F)c1ccc(C(O)(C(F)(F)F)C(F)(F)F)cc1 [T0901317] (first compound 0.1 µM, partner dose 7 µM) | 76.8
COc1ccc(COc2ccc(Cc3cnc(N)nc3N)cc2OC)cc1 + CC(C)CCN1c2nc(Nc3cc(F)c(O)c(F)c3)ncc2N(C)C(=O)C1C [BID1870] (first compound 5 µM, partner dose 1 µM) | 87.9
c1cc(-c2cnn3cc(-c4ccc(OCCN5CCCCC5)cc4)cnc23)ccn1 [Dorsomorphin] + CC(C)CCN1c2nc(Nc3cc(F)c(O)c(F)c3)ncc2N(C)C(=O)C1C [BID1870] (first compound 2 µM, partner dose 1 µM) | 86.2
N#Cc1c(O)c2c(-c3ccc(-c4ccccc4O)cc3)csc2[nH]c1=O + O=c1cc(-c2cccc3c2Sc2ccccc2S3)oc(N2CCOCC2)c1 [KU55933] (first compound 10 µM, partner dose 5 µM) | 101
N#Cc1c(O)c2c(-c3ccc(-c4ccccc4O)cc3)csc2[nH]c1=O + CCN(CC)CCCCNc1ncc2cc(-c3cc(OC)cc(OC)c3)c(NC(=O)NC(C)(C)C)nc2n1 [PD173074] (first compound 10 µM, partner dose 0.5 µM) | 91.7
Oc1cc(-c2nc(-c3ccccc3)[nH]c2-c2ccncc2)ccc1Cl + Oc1nc(-c2ccc(C(F)(F)F)cc2)nc2c1CSCC2 [XAV939] (first compound 1 µM, partner dose 10 µM) | 77.9
O=S(=O)(c1ccccc1)N(CC(F)(F)F)c1ccc(C(O)(C(F)(F)F)C(F)(F)F)cc1 + Oc1cc(-c2nc(-c3ccccc3)[nH]c2-c2ccncc2)ccc1Cl [L779450] (first compound 7 µM, partner dose 1 µM) | 81.7
N#Cc1c(O)c2c(-c3ccc(-c4ccccc4O)cc3)csc2[nH]c1=O + Oc1cc(-c2nc(-c3ccccc3)[nH]c2-c2ccncc2)ccc1Cl [L779450] (first compound 10 µM, partner dose 1 µM) | 88.4
